# Values joined by “and” are separate entries in the source; they are usually repeats but may differ in a detail not shown here. Identical values can stand only once. The whole screen tested about 420,000 compounds, of which about 75 (0.02%) were called active. The shares of active, inactive and inconclusive entries below differ from those in the screen. The call rests on the fitted dose curve; in most records, active means well fitted activation curve with a large enough effect; inconclusive means small, poorly fitted or top-dose-only effect; inactive means no such curve, though single readings can be large or run the other way. Potencies of inconclusive entries are doubtful fits and often do not repeat.
# Test: qHTS for Inducers of the Endoplasmic Reticulum Stress Response (ERSR) in Human Glioma: qHTS; further: nearly all actives have a fitted effect of over 35% in size; on activation: % of control where 0% means no effect
# Conditions: U87-MG GRP78 promoter luciferase reporter, 16 h; activation: active compounds read high
# How it was run: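 ERSR induction read as luciferase luminescence (Bright-Glo, 10 min at room temperature) in stably transfected human U87-MG glioma cells exposed to compounds for 16 h, using GRP78 as sensor.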
# Potency means the concentration at half of the fitted maximal effect; tags describe the fitted curve by direction and shape.
Compound,Potency,activation
COc1cc(/C=C/C(=O)Nc2cccc(S(=O)(=O)N3CCOCC3)c2)ccc1OCC#N,"inconclusive: 11.2 µM [activator, single point]",–
O=C(COc1ccc2ccc(=O)oc2c1)NC1CCCC1,"inconclusive: 50.1 µM [activator, single point]",–
O=C(O)CSCC(=O)Nc1ccccc1SCCS(=O)(=O)c1ccc(Cl)cc1,"inconclusive: 70.8 µM [activator, single point]",–
Cc1ccnc(N2CCC(C(=O)NCc3ccc4c(c3)OCO4)CC2)n1,–,inactive: -0.832%
CCCCCCCCCCCCCCCCOCC(CO)OC(C)=O (configuration not stated),"inconclusive: 31.6 µM [activator, single point]",–
CCc1ccc2nc3sc(C(=O)O)cc3cc2c1,–,inactive: 5.19%
CC1(C)N([O-])C2=C(c3ccccc3C2=O)[N+](=O)C1(C)C,"inconclusive: 50.1 µM [activator, single point]",–
CCN(CC)c1ccc2cc(-c3nc(-c4ccc(OC)cc4)cs3)c(=O)oc2c1,–,inactive: -3.74%
COc1cc(/C=C/C(=O)c2ccccc2O)cc(OC)c1OC,"inconclusive: 28.2 µM [activator, single point]",–
CCc1ccc(OCC(=O)O/N=C(\N)c2ccncc2)cc1,"inconclusive: 39.8 µM [activator, partial curve, poor fit]",–
COc1cccc(C(=O)Nc2ccc(-c3nc4ccccc4o3)c(O)c2)c1,"inconclusive: 10 µM [activator, partial curve, poor fit]",–
O=C(Nc1ccon1)c1ccccc1Cl,"inconclusive: 28.2 µM [activator, single point]",–
CC(C)c1ccc(OCC(=O)Nc2cccc(C(=O)Nc3ccccc3C(=O)O)c2)cc1,–,inactive: 1.69%
Nc1c(C(=O)c2ccc(F)cc2)sc(Nc2ccccc2F)c1S(=O)(=O)c1ccc(Br)cc1,"inconclusive: 44.7 µM [activator, single point]",–
COc1ccc(OC)c(NC(=O)CSC2=NN3CCCC(=O)N=C3S2)c1,–,inactive: -0.567%
S=c1nccc(-c2ccc(Cl)cc2)[nH]1,–,inactive: -0.475%
O=C(O)c1cc2n(n1)CCN(Cc1ccccc1Cl)C2=O,–,inactive: -3.07%
COc1ccc(Cl)cc1-c1ccc(C(=O)O)s1,"inconclusive: 50.1 µM [activator, single point]",–
COc1cccc(C#CC2=CC(=O)C[C@H](c3ccc(F)cc3)C2)c1,"inconclusive: 63.1 µM [activator, single point]",–
CCN(CC)CCCNCC(=O)Nc1cc(C)on1,–,inactive: -2.11%
Brc1ccc2c(c1)-c1ccccc1C1=NCCN12,"inconclusive: 28.2 µM [activator, single point]",–
COc1ccc(C(=O)/C=C/c2ccccc2OC)c(OC(=O)c2ccc([N+](=O)[O-])cc2)c1,"inconclusive: 10 µM [activator, full curve]",–
O=c1c2cc(F)ccc2sn1-c1ccccc1,–,inactive: -10.3%

Compound,Potency,activation
COc1ccc(S(=O)(=O)N2CCN(CCOc3ccccc3Cl)CC2)cc1OC,–,inactive: -1.52%
c1ccc2c(c1)CC/C2=N/Nc1nc2ccccc2[nH]1,"inconclusive: 50.1 µM [activator, partial curve, poor fit]",–
CCOC(=O)Cn1c(=O)oc2cc(S(=O)(=O)NC(C)c3ccccc3)ccc21 (configuration not stated),"inconclusive: 44.7 µM [activator, single point]",–
COc1ccc(-c2nnc(SCc3c(C)noc3C)o2)cc1,"inconclusive: 15.8 µM [activator, partial curve, poor fit]",–
O=C(CCCc1cccs1)N1CCN(S(=O)(=O)c2ccccc2Br)CC1,–,inactive: -3.21%
CCc1cc(C(=O)c2ccc(OC)cc2)c(NC(=O)CN2CCCC2)s1,–,inactive: 2.5%
CN(C)CCCN=c1cc(-c2ccccc2)oc2ccc(Cl)cc12,–,inactive: 4.2%
CC(C)C(=O)NCC1CCC2(CCN(Cc3ccc(-c4cccc(Cl)c4)o3)CC2)O1 (configuration not stated),"inconclusive: 12.6 µM [activator, single point]",–
Cc1ccc(/C=N/NC(=O)c2cccc(S(=O)(=O)Nc3cccc(Cl)c3)c2)o1,"inconclusive: 50.1 µM [activator, single point]",–
CS(=O)(=O)c1ccc2c(c1)sc1nc(=O)c(/C=C3/C=CC(=O)C(O)=C3)c(N)n12,"inconclusive: 12.6 µM [activator, single point]",–
Cc1ccnc(NS(=O)(=O)c2ccc(NC(=O)c3ccc(S(=O)(=O)N4CCCC4)cc3)cc2)n1,"inconclusive: 11.2 µM [activator, single point]",–
CC(=O)Nc1ccc(NC(=O)/C=C/c2ccccc2)cc1,"inconclusive: 17.8 µM [activator, single point]",–
Oc1ccc(Cl)cc1-c1cc(-c2cccc(Br)c2)n[nH]1,"inconclusive: 10 µM [activator, partial curve, poor fit]",–
COc1ccc(CC(C(=O)Nc2ccc(OC)cc2)c2nn[nH]n2)cc1 (configuration not stated),–,inactive: -0.82%
Cc1cc(=O)[nH]c(N/N=C/c2ccc(-c3ccc(F)cc3)o2)n1,–,inactive: 4.68%
Cc1ccc(NCCN(C)C)c2c(=O)c3cc(O)ccc3sc12,"inconclusive: 22.4 µM [activator, single point]",–
CC[C@@H]1CC=C[C@H]2[C@H]1C(=O)N(Cc1ccccc1)[C@H]2c1ccoc1,"inconclusive: 28.2 µM [activator, single point]",–
O=C(OCc1nc2scc(-c3ccccc3)c2c(=O)[nH]1)c1cc([N+](=O)[O-])ccc1Cl,"inconclusive: 39.8 µM [activator, partial curve, poor fit]",–
Cc1ccc(O)c(-c2cc(-c3ccccc3F)[nH]n2)c1,"inconclusive: 5.62 µM [activator, full curve, poor fit]",–
CCCCCOc1ccc(/C=C/C(=O)Nc2sc(C)c(C)c2C(=O)OCC)cc1OC,"inconclusive: 2.24 µM [activator, full curve, poor fit]",–
CC(C)(C)OC(=O)N1CCN(/[N+]([O-])=N/Oc2ccc([N+](=O)[O-])cc2[N+](=O)[O-])CC1,"inconclusive: 20 µM [activator, single point]",–
O=c1cc(-c2ccccc2)oc2cc(O[C@@H]3O[C@H](CO)[C@@H](O)[C@H](O)[C@H]3O)c(O)c(O)c12,"inconclusive: 15.8 µM [activator, partial curve, poor fit]",–
CCN(CC)CCN1C(=O)c2cccc3cc(N)cc(c23)C1=O,"inconclusive: 28.2 µM [activator, single point]",–

Compound,Potency,activation
O=C(NCc1cccs1)C1CC(c2ccc(Cl)cc2)=NO1 (configuration not stated),"inconclusive: 14.1 µM [activator, full curve, poor fit]",–
Cc1ccccc1Oc1nc2c(C)cccn2c(=O)c1/C=C(\C#N)C(=O)NC1CCS(=O)(=O)C1 (configuration not stated),"inconclusive: 17.8 µM [activator, single point]",–
Cc1ccn(C(C)CC(=O)Nc2ccc(-c3ccno3)cc2)n1 (configuration not stated),–,inactive: 0.011%
O=C(O)CCC(=O)Nc1ccc(Br)cc1C(=O)c1ccccc1Cl,"inconclusive: 44.7 µM [activator, single point]",–
CCOc1ccc(N2C(=O)S/C(=C\c3cc(OC)c(OC)c(OC)c3)C2=O)cc1,"inconclusive: 11.2 µM [activator, single point]",–
COc1ccc(C2NC(=O)c3sc(=S)n(-c4ccccc4)c3N2)cc1 (configuration not stated),–,inactive: 0.756%
COc1ccc(C(=O)N2CCSC2=S)cc1OC,"inconclusive: 50.1 µM [activator, single point]",–
COc1ccc(NC(=O)c2ccc(NC(=O)CCS(=O)(=O)c3cccs3)cc2)cc1,–,inactive: -3.36% and inactive: -4.41%
COc1ccc(C/C(N)=N/OC(=O)C(c2ccccc2)c2ccccc2)cc1OC,–,inactive: -1.08%
Cc1cccc(C(=O)NNC(=S)NC(=O)c2cccs2)c1,"inconclusive: 50.1 µM [activator, single point]",–
O=C(COC(=O)Cn1cnc2ccccc2c1=O)Nc1ccc(Cl)cc1,–,inactive: -2.57%
COc1cc(/C=N/Nc2cccc3cccnc23)cc(OC)c1O,"inconclusive: 28.2 µM [activator, single point]",–
O=c1c(C(c2ccccc2)c2c(O)nc3n(c2=O)CCCS3)c(O)nc2n1CCCS2,–,inactive: -6.06%
CS(=O)(=O)N(CC(=O)Nc1ccc2c(c1)OCO2)Cc1ccc(Cl)cc1,"inconclusive: 15.8 µM [activator, single point]",–
c1ccc2c(c1)C1=NCCN1c1ccccc1-2,"inconclusive: 22.4 µM [activator, single point]",–
Cc1ccc(NC(=O)c2cc(S(=O)(=O)N(C)C)ccc2N2CCCC2)cc1S(=O)(=O)N(C)C,active: 31.6 µM,–
CCOc1ccc(CCNC(=O)COC(=O)/C=C/c2ccc(OC)c(OC)c2)cc1OCC,–,inactive: -1.67%
Fc1cccc(Cc2c(-c3ccco3)nc3c(Cl)cc(C(F)(F)F)cn23)c1,"inconclusive: 28.2 µM [activator, single point]",–
O=C(N[C@@H](Cc1ccccc1)C(=O)CCl)OCc1ccccc1,–,inactive: -11.4% and inactive: -14.3%
COc1ccc(S(=O)(=O)N(CC(=O)Nc2ccccc2Br)Cc2ccccc2)cc1,"inconclusive: 20 µM [activator, single point]",–
Cc1nnnn1/C(=C\c1ccccc1)C(=O)OCC(=O)Nc1ccc(Cl)cc1F,"inconclusive: 20 µM [activator, single point]",–
